Test results: PubChem BioAssay AID1159614 (National Center for Advancing Translational Sciences (NCATS), 2016)
In all, about 45,000 compounds went through this assay and about 65 (0.1%) were called active. Calls follow the shape of the dose curve; as a rule, active = well fitted activation curve with a large enough effect; inconclusive = small, poorly fitted or top-dose-only effect; inactive = no such curve, though single readings can be large or run the other way. This is one part of the list.

Target: Galactocerebrosidase (Homo sapiens) (UniProt P54803)
Assay: A Novel Cell-Based Assay to Identify Small Molecules for B -Galactocerebrosidase; also: 0% is about no effect; nearly all actives have a fitted effect of over 65% in size
Settings: 145M-Twi-hGALC-G270D cells (Twitcher mouse brain line with human GALC G270D), HMU-beta-Gal fluorescence, 48 h; series mostly up to 57.5 µM; activation: at the top concentration
In short: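 Live 145M-Twi cells (Twitcher mouse brain-derived, GALC-null) stably expressing human GALC-G270D, with a wild-type GALC line, were compound-treated. Residual GALC activity was then read as fluorescence from 0.1 mM final HMU-β-gal at pH 5.2; higher signal means activation.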

UniProt P54803, sequence (P54803 whole entry, looked up): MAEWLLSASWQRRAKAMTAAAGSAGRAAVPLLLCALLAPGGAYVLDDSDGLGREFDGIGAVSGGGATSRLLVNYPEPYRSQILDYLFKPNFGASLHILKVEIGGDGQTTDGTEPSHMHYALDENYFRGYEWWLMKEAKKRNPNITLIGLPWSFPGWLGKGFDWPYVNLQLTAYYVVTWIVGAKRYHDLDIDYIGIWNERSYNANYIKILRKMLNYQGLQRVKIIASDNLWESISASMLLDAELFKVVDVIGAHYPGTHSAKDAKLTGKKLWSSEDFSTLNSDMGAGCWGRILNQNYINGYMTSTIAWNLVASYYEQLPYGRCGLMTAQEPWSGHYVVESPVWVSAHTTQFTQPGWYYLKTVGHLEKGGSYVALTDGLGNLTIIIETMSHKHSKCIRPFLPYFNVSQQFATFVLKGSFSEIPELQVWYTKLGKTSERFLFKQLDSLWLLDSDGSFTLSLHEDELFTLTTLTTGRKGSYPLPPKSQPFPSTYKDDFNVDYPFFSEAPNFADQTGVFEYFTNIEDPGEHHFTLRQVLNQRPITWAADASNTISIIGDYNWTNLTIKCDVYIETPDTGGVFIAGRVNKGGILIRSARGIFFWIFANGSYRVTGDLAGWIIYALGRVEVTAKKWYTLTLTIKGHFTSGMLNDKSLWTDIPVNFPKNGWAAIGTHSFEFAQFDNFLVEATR

activation, inactive:
COc1ccc(CNC(=O)CCCc2nnc3n(C(C)C)c(=O)c4sccc4n23)cc1 -12.2%
Cc1ccc(OCC(=O)NCC(=O)OCc2cc(=O)n3nc(C(C)C)sc3n2)cc1 -3.55%
CC(C)Oc1ccc(C(=O)N(Cc2ccc(N(C)C)cc2)Cc2ccco2)cc1 -5.74%
CCOC(=O)c1oc2c(c1C)-c1nn(Cc3cccc(Cl)c3)cc1CC2 -0.0455%
COc1ccc(C(=O)NC(c2ccccc2Cl)c2cc(Cl)c3cccnc3c2O)cc1 (stereo not drawn) -13.3%
CCN(CC)S(=O)(=O)c1ccc2c(c1)N(CC(=O)Nc1c(C)cccc1C)C(=O)C1CCCN21 (stereo not drawn) 4.76%
Cc1c(C)n(Cc2ccccc2)c2ccc(C(=O)N3CCN(c4ccccc4)CC3)cc12 3.12%
CCN(C(=O)Cn1c(=O)oc2cc(S(=O)(=O)N3CCCCCC3)ccc21)c1cccc(C)c1 -13.8%
O=C(CCS(=O)(=O)c1ccc(Br)s1)Nc1cc(C(F)(F)F)cc(C(F)(F)F)c1 8.25%
O=C(NCc1ccccc1)NC1COc2ccccc2C1 (stereo not drawn) -14.8%
Cn1cc(S(=O)(=O)N2CCCCCC2)cc1C(=O)NCc1ccc(F)cc1 -3.63%
Cc1cccc(C)c1Nc1c(-c2ccccn2)nc2ccc(Cl)cn12 -11.3%
Cc1cccc(OC(=O)c2snnc2C)c1 -9.43%
COc1ccc(-c2nc(CSCC(=O)N3CCN(c4ccccc4F)CC3)c(C)o2)cc1 -12.2%
Cc1cccc(NC(=O)C(=O)NCCCN2CCOCC2)c1 3.95%
CCOc1ccc(NC(=O)c2sc(-n3nc(C)c(CCC(C)C)c3C)nc2C)cc1 -7.25%
COc1ccc(NC(=O)c2nc(SCc3ccc(F)cc3)ncc2Cl)cc1 -12.2%
O=C(NCCc1ccc(Cl)cc1)c1ccc(Nc2nc3ccccc3n3nnnc23)cc1 -9.36%
COc1ccc(CNCc2ccc(C(=O)O)s2)cc1 -9.07%
CCOc1ccccc1NC(=O)CSc1ncc2c(n1)-c1ccccc1N(CC)S2(=O)=O -13.4%
CCCCOC(=O)CSc1ncnc2sc3c(c12)CCC(C)C3 (stereo not drawn) -12.2%
CC1=C(c2ccc(C)cc2)S(=O)(=O)NC1=NCc1ccccc1Cl -6.63%
C=Cc1ccc(Cn2c(C(=O)O)c(CNCCc3ccco3)c3ccc(C)cc32)cc1 -2.74%
COC(=O)c1cc2sccc2n1Cc1nc(-c2cccc(Cl)c2)oc1C -1.68%
OCC(O)CN1CCN(c2ccccc2)CC1 (stereo not drawn) -9.96%
CCOc1ccccc1CNC(=O)c1ccc2nc(N3CCC(C)CC3)sc2c1 -10.3%
Cc1ccccc1Nc1c(-c2ccc(N3CCOCC3)cc2)nc2cccc(C)n12 -13.5%
CCC(C)Nc1nc2c(c(=O)[nH]c(=O)n2C)n1Cc1ccc(F)cc1 (stereo not drawn) -18.4%
Cc1ccc(-n2ncc3c(NCCc4ccc(S(N)(=O)=O)cc4)ncnc32)cc1 -6.06%
O[C@@H](COc1cccc2ncccc12)CN1CCN(C2c3ccccc3[C@@H]3[C@H](c4ccccc42)C3(F)F)CC1 (stereo partly drawn) -5.44%
COc1ccccc1N1CCN(C(=O)c2nn(C)c3c2CS(=O)(=O)c2ccccc2-3)CC1 -4.79%
Cc1ccccc1-c1nc(CNC(=O)NC2CCCCC2)c(C)o1 -7.7%
Cn1ccc2cc(S(=O)(=O)N3CCCC(C(=O)NCc4ccccc4F)C3)ccc21 (stereo not drawn) -10.2%
CC(C)c1ccc(C2CC(=O)N3CN(C4CCCCC4)CSC3=C2C#N)cc1 (stereo not drawn) -16.3%
CCCCN(CCCC)CCCNC(=O)c1cc(-c2ccc(Cl)s2)nc2ccccc12 -11.4%
COc1ccc(-n2ncc3c2ncn2nc(-c4ccc(OC)c(OC)c4)nc32)cc1 -10.2%
CC1=C(C(=O)Nc2ccccc2)C(c2ccc(Br)cc2)n2nc(CCCO)nc2N1 (stereo not drawn) -11.2%
CCOC(=O)c1ccc(NC(=O)Cc2noc3ccc(C)cc23)cc1 -12.8%
Cn1cc(S(=O)(=O)N2CCCC2)cc1C(=O)Nc1ccc(F)cc1F -12%
COc1cccc(CNC(=O)CN2C(=O)COc3ccc(S(=O)(=O)N4CCCCC4)cc32)c1 6.22%
CCN(CC)c1ccc(CN(C(=O)c2cc(=O)c3ccccc3o2)C2CCS(=O)(=O)C2)cc1 (stereo not drawn) -20.7%
CCn1cc2nc(SCc3cc(C)ccc3C)n(Cc3ccc(Cl)cc3)c(=O)c2n1 -18.6%
Cc1ccc(-c2nc3sc(CCNC(=O)c4ccc(F)c(F)c4)c(C)n3n2)cc1 6.18%
CCCCC12CN3CC(C)(CN(C1)C3c1ccc(OCc3ccccc3)cc1)C2=O (stereo not drawn) -28.9%
CC1=C(C(=O)Nc2ccccc2Br)C2(CCC(C)CC2)OC1=O (stereo not drawn) -0.0584%
O=C(CCCCCn1c(=O)[nH]c2ccccc2c1=O)N1CCN(c2cccc(C(F)(F)F)c2)CC1 -8.37%
Cc1ccc(CNC(=O)CCCCCn2c(=O)c3sccc3n(CC(=O)N3CCCCC3C)c2=O)cc1 (stereo not drawn) -10.6%
O=C(C1CCN(S(=O)(=O)c2cccs2)CC1)N1CCN(c2ccccc2F)CC1 4.29%
CCCn1cc(S(=O)(=O)c2ccc(C)c(C)c2)c(=O)c2cc(F)c(N3CCCCC3)cc21 -13.9%
CC(C)NC(=O)c1ccc(CSc2nc3ccncc3n2Cc2cccc(F)c2)cc1 -10.3%
CCC(CC)C(=O)Nc1ccc(S(=O)(=O)N2CCC(c3nc4ccccc4s3)CC2)cc1 -3.81%
Cc1nc(-c2ccc(S(=O)(=O)N3CCN(c4ccccc4F)CC3)cc2)co1 -2.61%
Cc1ccccc1NC(=O)c1c(C)oc2ccc(O)c(CN3CCCCCC3)c12 -5.23%
COc1ccc(C)cc1NC(=O)CN(C)S(=O)(=O)c1ccc2c(c1)c(=O)n(C)c(=O)n2C 9.21%
FC(F)(F)c1cccc(Nc2nc3nonc3nc2Nc2ccc(Cl)cc2)c1 -10.2%
CCN(C(=O)Cn1c(C(=O)OC)cc2sccc21)c1cccc(C)c1 -11.5%
CNC(=O)c1c(I)c(NC(C)=O)c(I)c(C(=O)O)c1I -13.2%
Cc1ccccc1NC(=O)c1sc2nc(-c3cc4ccccc4oc3=O)[nH]c(=O)c2c1C -16.6%
CC(=O)Nc1cccc(NC(=O)CSc2nccn2Cc2ccccc2)c1 -15.2%
Cc1ccccc1-c1noc(-c2ccc(NCc3cccnc3)c([N+](=O)[O-])c2)n1 -40.6%
CC1=C(c2ccc(C(C)C)cc2)S(=O)(=O)N=C1N1CCC(C(=O)NCc2ccc(C)o2)CC1 -14.1%
O=C(NC1CCCCC1)c1ccc(CSc2nc3cccnc3n2Cc2ccccc2)cc1 -8.35%
Cc1nc2c(-c3ccc(F)cc3)c(C)nn2c(C)c1CCC(=O)NCc1ccc(F)cc1 -4.42%
